The values that follow come from PubChem BioAssay AID463173 (ICCB-Longwood Screening Facility, Harvard Medical School, 2010).

The whole screen tested about 52,000 compounds, of which about 1,700 (3.3%) were called active. Cut-off read from the data, not from the text of the source: active = survival mostly below about 52% (no sharp cut-off); inactive = mostly above about 56%. The list shows a part of the results.

The assay has as its system Wild type. Description: growth inhibition of S. aureus wild type versus tarO mutant, primary screen, teichoic acid synthesis inhibitors, RN4220, OD600 (AID 463173). To be noted: S. aureus RN4220 wild type/DeltatarO growth, OD600, 18 h, stronger effect = lower value, screened at 18.75 µg/mL (by protocol).
As for `Cc1cc(C(c2nnnn2Cc2ccccc2)N2CCOCC2)c(C)n1-c1ccc2c(c1)OCO2` (stereo unspecified), the survival was inactive: 114%.

On to `Cc1ccc(Nc2ccc(N3CCN(C(=O)c4ccc([N+](=O)[O-])cc4)CC3)nn2)cc1`, for which the survival was inactive: 100%.

Take `CN(C)CCCNC1CS(=O)(=O)CC1O` (stereo unspecified): the survival is inactive: 112%.

On to `CCCCNC(=O)Cc1ccc(Br)cc1`, for which the survival was inactive: 120%.

Turning to `Cc1ccc(C)c(NS(=O)(=O)c2cc3c4c(c2)C(C)C(=O)N4CCC3)c1` (stereo unspecified), the survival was inactive: 124%.

In the case of `Cc1nc2ccn(Cc3ccco3)c(=O)c2cc1C(=O)NCc1ccc(F)cc1`, the survival is inactive: 71%.

Turning to `CCC(c1nnnn1Cc1ccccc1)N1CCN(c2cccc(Cl)c2)CC1` (stereo unspecified), the survival is inactive: 105%.

With `CCOC(=O)c1cccc(NS(=O)(=O)c2cc3c(cc2C)NC(=O)CO3)c1`, the survival is inactive: 90%.

For `O=C(c1ccc(Nc2nc3ccccc3n3nnnc23)cc1)N1CCN(c2cccc(C(F)(F)F)c2)CC1`, the survival was inactive: 83%.

For the molecule `Cc1ccc(NC(=O)CN2C(=O)CC(C)Sc3ccccc32)c(C)c1` (stereo unspecified), the survival is inactive: 84%.

As for `Cc1c(Cl)cccc1-n1ncc(C(=O)N2CCOCC2)c1C1CCN(C(=O)OC(C)(C)C)CC1`, the survival is inactive: 101%.

Consider `CCNC(=O)Cn1nc(C)n2c(cc3c(OC)cccc32)c1=O`, for which the survival is inactive: 85%.

Consider `Cc1oc2ccc(O)c(CN3CCOCC3)c2c1C(=O)Nc1cccc(Cl)c1C`, for which the survival was inactive: 84%.

Regarding `Cc1ccc(NC(=O)C2CCN(c3nnc(C)c4c(C)n(-c5ccccc5)nc34)CC2)cc1Cl`, the survival is inactive: 83%.

Consider `Cc1ccc(OCC(=O)OCc2cc(=O)n3nc(C4CC4)sc3n2)cc1`, for which the survival was inactive: 117%.

`On1ccc2c(Br)cncc21`: the survival is inactive: 106%.

For `Cc1cc(C)n(C(C)CC(=O)NCc2ccc(Cl)cc2)n1` (stereo unspecified), the survival is inactive: 66%.

For `Cc1ccc(OCCCSc2nc(-c3ccc(C(C)(C)C)cc3)nc3cc(=O)[nH]n23)cc1C`, the survival was inactive: 49%.

On to `COCCCNC(=O)C1CCN(c2cc(C)nc3c(-c4ccc(Cl)cc4)c(C)nn23)CC1`, for which the survival was inactive: 77%.

`CCN(CC)CCCNC(=O)c1ccc2c(Cl)c3c(nc2c1)CCCC3`: the survival was inactive: 86%.

`CCc1nn2c(=O)cc(COC(=O)C(CC)c3ccccc3)nc2s1` (stereo unspecified): the survival was inactive: 73%.

Regarding `CCOC(=O)c1c(Oc2ccc(C(C)=O)cc2)nnc(-c2ccccc2)c1-c1ccccc1`, the survival was inactive: 92%.

With `CCOC(=O)Cn1c(=O)n(-c2ccccc2OC)c2nc(-c3ccc(C(C)C)cc3)nc(C(N)=O)c21`, the survival is inactive: 82%.

With `O=C1C(=Cc2ccc3c(c2)OCO3)C(=O)c2ccccc21`, the survival is inactive: 109%.

Regarding `CC(C)CC1Nc2ccc(C(=O)NCCCOC(C)C)cc2NC1=O` (stereo unspecified), the survival is inactive: 67%.

Turning to `COc1ccc(C(=O)NCCn2cc(SCC(=O)Nc3ccc4c(c3)OCCO4)c3ccccc32)cc1OC`, the survival was inactive: 74%.

As for `O=C(CC1N=C2c3ccccc3N=C(SCC(=O)Nc3ccc(F)cc3)N2C1=O)NCc1cccs1` (stereo unspecified), the survival is inactive: 71%.

For `CCCN1C2=C(C(=O)CCC2)C(c2ccc(F)cc2)C2=C1c1ccccc1C2=O` (stereo unspecified), the survival was inactive: 109%.

On to `COc1ccc(CC(=O)N2CCc3cc(OC)c(OC)cc3C2COc2ccc(F)cc2)cc1OC` (stereo unspecified), for which the survival was inactive: 63%.

Take `O=C(NCc1ccccc1)c1ccc2oc(=O)n(Cc3ccccc3)c2c1`: the survival is inactive: 71%.

On to `C=CCc1cccc2cc(NC(C)=O)c(=O)oc12`, for which the survival was inactive: 104%.

For `COc1ccc2c(CNCc3cccs3)c(C(=O)O)n(Cc3ccccc3F)c2c1`, the survival is inactive: 89%.

Take `CN(C)c1ccc(NC(=O)CSC2=Nc3ccccc3C3=NC(CCC(=O)NCc4cccs4)C(=O)N23)cc1` (stereo unspecified): the survival was inactive: 63%.

For the molecule `Cc1c(C(=O)NC(C)c2ccccc2)sc2nc3n(c(=O)c12)CCCC3` (stereo unspecified), the survival was inactive: 87%.

Regarding `NS(=O)(=O)c1ccc2nc(NC(=O)COc3ccc(Cl)cc3Cl)sc2c1`, the survival is inactive: 70%.

For the molecule `CCOC(=O)c1c(-c2cccs2)csc1NC(=O)C(F)(F)F`, the survival was inactive: 106%.

`COCCNC(=O)c1ccc2c(c1)N=C(C)c1cc(C)ccc1S2`: the survival is inactive: 80%.

For the molecule `Cn1c(SCC(=O)Nc2nc3ccccc3s2)ncc(C(=O)Nc2ccc(F)cc2)c1=O`, the survival is inactive: 60%.

Turning to `CC(C)NC(=O)Cn1ccc2ccc(C#N)cc21`, the survival was inactive: 104%.

For `COc1cccc(C(=O)Nc2cccc(C(=O)OCc3cc(=O)n4c(C)csc4n3)c2)c1`, the survival is inactive: 133%.

As for `CC1CCN(C(=O)c2cccc(NC(=O)c3nsc4ccccc34)c2)CC1`, the survival was inactive: 69%.

Consider `CCOC(=O)COc1ccc(C)cc1C(=O)c1ccn2nc(-c3ccc(F)cc3)cc2n1`, for which the survival was inactive: 69%.

For the molecule `Cc1nc2cc(-c3ccccc3)sc2c(=O)n1N`, the survival was inactive: 118%.

Regarding `CCOc1ccc(-n2nc3ccc(NC(=O)c4ccc(-c5cccc(Cl)c5)o4)cc3n2)cc1`, the survival was inactive: 66%.

As to `Cc1nc2scc(C)n2c(=O)c1S(=O)(=O)Nc1cccc(C(F)(F)F)c1`, the survival is inactive: 94%.

In the case of `COc1ccccc1Cc1nc2ccccc2nc1SCC(=O)NCc1ccccc1Cl`, the survival was inactive: 131%.

For `O=C(O)C1CCCN1C(=O)C12CC3CC(CC(C3)C1)C2` (stereo unspecified), the survival is inactive: 116%.

With `N=Nc1c(O)n(CC(=O)Nc2ccccc2)c2ccccc12`, the survival is inactive: 112%.

Take `CN1CCc2nc3sc(C(=O)Nc4ccccc4C(F)(F)F)c(N)c3cc2C1`: the survival was inactive: 153%.

`CCCC1=Nc2cc(C(=O)N3CCC(C)CC3)ccc2Sc2ccc(C)cc21`: the survival is inactive: 107%.

In the case of `CC1=C(C(=O)OC2CCCCCC2)C(c2cccc(Cl)c2)CC(=O)N1` (stereo unspecified), the survival was inactive: 124%.

As to `Cc1ccc2c(=O)c(C(=O)c3cccc(Cl)c3)cn(CC(=O)Nc3ccccc3C(F)(F)F)c2n1`, the survival is inactive: 102%.

Regarding `COc1ccccc1C(=O)OCc1cc(=O)n2nc(C(C)C)sc2n1`, the survival is inactive: 73%.

Take `COC(=O)Cn1c(C(O)c2ccccc2)nc2ccccc21` (stereo unspecified): the survival was inactive: 97%.

Turning to `CC(Oc1ccccc1)C(=O)N1CCCC1` (stereo unspecified), the survival is inactive: 112%.

On to `CCn1nnc(NC(=O)c2ccccc2)n1`, for which the survival was inactive: 105%.

As to `CC1=Nc2cc(C(=O)NCCc3ccc(Cl)cc3)ccc2Sc2c(C)ccc(C)c21`, the survival is inactive: 91%.

In the case of `COc1ccccc1CNC(=O)c1oc2ccc3c(c2c1C)C(=O)CC(C)(C)O3`, the survival was inactive: 59%.

As for `COc1ccc(-c2noc(-c3ccc(NCC4CCCO4)c([N+](=O)[O-])c3)n2)cc1OC` (stereo unspecified), the survival was inactive: 79%.

Consider `CC(=O)Nc1ccc(NC(=O)CCS(=O)(=O)c2ccc3c(c2)CC(=O)N3C)cc1`, for which the survival is inactive: 66%.

On to `CCOC(=O)CC(=O)CSc1nc2ccccc2c(=O)n1CCc1ccc(S(N)(=O)=O)cc1`, for which the survival was inactive: 71%.

For the molecule `CC1CCCCN1CCCNC(=O)c1cc(Sc2ccc(Cl)cc2)nc2ccccc12` (stereo unspecified), the survival was inactive: 78%.

`COc1ccc(NC(=O)Cn2cc(S(=O)(=O)Cc3ccc(F)cc3)c3ccccc32)cc1OC`: the survival is inactive: 70%.

Consider `CCOC(=O)C1CCC(CN(Cc2cccc(Br)c2)S(=O)(=O)c2ccc(Cl)cc2)CC1` (stereo unspecified), for which the survival was inactive: 90%.

For the molecule `Cc1ccc(C)c(CNC(=O)c2cc3ccccn3n2)c1`, the survival was inactive: 76%.

In the case of `CC1Cc2cc(S(=O)(=O)NCc3ccc(N(C)C)cc3)ccc2N1C(=O)C1CCC1` (stereo unspecified), the survival is inactive: 138%.

With `COc1ccc(N2CC(NC(=O)COc3ccc4ccccc4c3)CC2=O)cc1OC` (stereo unspecified), the survival was inactive: 99%.

Consider `CCN1C(=O)C(Cc2nc3ccccc3c(=O)n2-c2ccc(OC)cc2)c2ccccc21` (stereo unspecified), for which the survival was inactive: 73%.

`C/C(=N\NC(=O)Cc1ccc(Cl)cc1)c1ccccc1O`: the survival is inactive: 114%.

`CCOC(=O)N1CCc2c(sc3c2C(=O)NC(c2ccccc2F)N3)C1` (stereo unspecified): the survival is inactive: 66%.

As to `Cc1ccc(-n2c(=O)c3c4c(sc3n(CC(=O)Nc3ccccc3C)c2=O)CCCCC4)cc1C`, the survival is inactive: 115%.

As for `CCCCC1CCC(C(=O)N2CC(=O)Nc3ccc(Cl)cc3C2c2ccc(F)cc2)CC1` (stereo unspecified), the survival is inactive: 71%.

Take `O=C1C(c2ccnc3ccccc23)=C(O)c2ccccc21`: the survival is inactive: 104%.

As for `CCN(CC)c1ccc(-c2nc(-c3ccco3)no2)cc1[N+](=O)[O-]`, the survival was inactive: 81%.

Take `CCC(C)NC(=O)c1sc2nc(C)c(C(=O)Nc3ccc(C)cc3C)c(-c3ccccc3Cl)c2c1N` (stereo unspecified): the survival was inactive: 75%.

As for `Nc1ccc2nc(CCc3ccccc3)[nH]c2c1`, the survival was inactive: 106%.

As for `COc1ccc(NC(=O)c2cnc(N3CCCCC3)c3ccccc23)cc1Cl`, the survival is inactive: 83%.

`Nc1nnc(CCN2C(=O)CSC2=O)s1`: the survival was inactive: 106%.

For `CCOC(=O)c1cccc2c1N[C@@H](c1ccc(F)cc1)[C@H]1CC=C[C@@H]21`, the survival is active: 12%.

In the case of `Cc1ccc(CCNC(=O)c2ccc3c(=O)n(-c4ccccc4)c(=O)[nH]c3c2)cc1`, the survival is inactive: 74%.

For the molecule `Cn1cc(S(=O)(=O)N2CCCCC2)cc1C(=O)Nc1cccc(C#N)c1`, the survival was inactive: 129%.

For the molecule `c1ccc(Cn2nnnc2CN2CCCC2)cc1`, the survival is inactive: 113%.

With `Cc1ccc(CNC(=O)Cn2c(=O)n(Cc3ccc(F)cc3)c(=O)c3sc4ccccc4c32)cc1`, the survival is inactive: 82%.

`c1ccc2c(c1)CC(N1CCCCC1)c1ccccc1N2` (stereo unspecified): the survival was inactive: 85%.

As to `COc1ccc(C(=O)/C=C\Nc2ccc(S(=O)(=O)N=C(N)N)cc2)cc1OC`, the survival is inactive: 114%.

Consider `O=C(Nc1ccc(Cl)cc1)N1CCC(c2ccccc2)C1` (stereo unspecified), for which the survival is inactive: 74%.

For the molecule `COc1cccc(N2CC(NC(=O)/C=C\c3ccc(OC)c(OC)c3)CC2=O)c1` (stereo unspecified), the survival was inactive: 73%.

As for `CCC(C)NC(=O)CN1C(=O)COc2ccc(S(=O)(=O)N3CCOCC3)cc21` (stereo unspecified), the survival is inactive: 81%.

For `CCOc1ccccc1NC(=O)c1c(NCc2sccc2C)sc2c1CCC(C)C2` (stereo unspecified), the survival is inactive: 120%.

For the molecule `Cc1cc(-c2ccc(S(=O)(=O)Nc3ccc(Cl)cc3C)cc2)on1`, the survival was inactive: 87%.

`CCCN(C(=O)Cn1ncc2c([nH]c3ccc(C)cc32)c1=O)c1ccccc1C`: the survival is inactive: 59%.
